Reference: the GPR68 mutational scans of Howard et al. (2025)

B1: GPR68, Q15743 (parent)
chain: MGNITADNSSMSCTIDHTIHQTLAPVVYVTVLVVGFPANCLSLYFGYLQIKARNELGVYLCNLTVADLFYICSLPFWLQYVLQHDNWSHGDLSCQVCGILLYENIYISVGFLCCISVDRYLAVAHPFRFHQFRTLKAAVGVSVVIWAKELLTSIYFLMHEEVIEDENQHRVCFEHYPIQAWQRAINYYRFLVGFLFPICLLLASYQGILRAVRRSHGTQKSRKDQIQRLVLSTVVIFLACFLPYHVLLLVRSVWEASCDFAKGVFNAYHFSLLLTSFNCVADPVLYCFVSETTHRDLARLRGACLAFLTCSRTGRAREAYPLGAPEASGKSGAQGEEPELLTKLHPAFQTPNSPGSGGFPTGRLA

Key:
[1] = variants of: B1; test: cAMP reporter score (Enrich2 score, wild type = 0); higher = more signal; HEK293T, FACS bins
[2] = variants of: B1; test: surface expression score (Enrich2 score, wild type = 0); higher = more signal; HEK293T, FACS bins

Variant	cAMP reporter score ([1]; pH 5.5)	cAMP reporter score ([1]; pH 6)	cAMP reporter score ([1]; pH 6, modulator: ogerin)	cAMP reporter score ([1]; pH 6.5, modulator: ogerin)	surface expression score [2]
T18R	0.107	0.654	0.371	0.546	0.578
T18H	0.528	-0.475	0.413	-0.325	-0.27
P25_V26insGS	-2.12	-0.405	-1.48	-1.1	-1.91
A24_V26del	-0.859	-1.28	-1.58	-0.541	-2.49
I19T	-0.66	–	-0.448	-0.275	-1.1
I19Y	-1.22	-0.472	-0.742	-1.09	-0.588
I19E	-1.28	-0.358	-2.43	-0.022	-1.35
I19M	0.092	0.221	0.286	-0.256	-1.08
I19V	-0.736	-0.743	-0.695	-0.923	-0.411
I19P	-1.01	-1.16	-1.29	-1.26	-0.873
I19H	-0.774	-0.234	-0.524	-0.803	-2.06
I19F	-1.11	-0.368	-1.11	-0.706	0.683
I19C	-1.15	-1.05	-0.404	-1.51	-1.33
I19W	0.112	-0.796	-0.892	-1.28	1.95
I19S	-1.29	-0.487	-1.2	-0.67	-1.31
I19G	-0.902	-1.15	-1.54	-1.29	-0.503

Variant	cAMP reporter score ([1]; pH 5.5)	cAMP reporter score ([1]; pH 6)	cAMP reporter score ([1]; pH 6, modulator: ogerin)	cAMP reporter score ([1]; pH 6.5, modulator: ogerin)	surface expression score [2]
I19D	-2.09	–	-1.99	-0.815	-1.79
I19R	-1.52	-1.04	-1.73	-0.629	-1.31
I19K	-0.88	-1.02	-1.09	-1.19	-1.27
I19A	-1.44	–	-0.451	-0.79	-1.32
I19L	-0.044	-0.388	-0.894	-0.92	0.61
I19Q	-1.25	-0.201	-1.84	-1.11	-1.1
I19N	-1.38	-1.8	-1.56	-0.806	-1.52
T22_L23insGS	-0.656	-0.756	–	-0.904	-2.44
V27_Y28insG	-1.37	–	–	-0.894	-2.62
A24del	-0.962	-0.446	-0.368	-0.861	-2.27
V26C	-0.234	0.607	-0.564	0.402	–
V26G	-0.542	-1.29	-1.1	-1.3	–
V26P	-0.231	-0.683	-0.602	-1.73	-2.56
V26F	0.319	0.086	0.587	0.4	0.69
V26D	-1.09	-0.615	-1.54	-1.83	-2.75
V26W	0.549	1.41	1.04	1.42	2.26

The least precise scores are not listed. The source holds two more conditions with little spread; they are left out. Names with del lack the residues named; names with ins carry added residues between the positions named. For some assays here: How much ogerin was present is not stated here.
